In the supplement of paper PMC11417369:
Some of the results follow.

What follows are sequences tested on PfAP2-HC AP2 domain (GST-tagged) (assay: gcPBM binding intensity (ln(normalized median fluorescence intensity)); higher = stronger DNA binding).
Outline: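 The binding buffer was 1× PBS containing 1% milk, 0.2 mg/ml BSA, 0.5% salmon testes DNA and 0.03% Triton X-100. In it, GST-tagged P. falciparum DNA-binding domains expressed in E. coli were applied for 1 h to an Agilent 4 × 180k array of primer-extended double-stranded 36-bp intergenic genomic probes plus negative controls. Binding intensity, read with Alexa488 anti-GST antibody and a 488 nm scan, is the highest Masliner-normalised natural-log median intensity across replicate spots of either probe orientation.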

| Sequence | gcPBM binding intensity (ln) |
| --- | --- |
| TATTTTTATTTAGGACGTACAAAAATAAATCATATT [XGTACX_site1448] | 9.32 |
| TTAAAAATATATATAACACACACATAATATATATAT [CACACA_site8811] | 10.5 |
| TATAAATATTACGGTAGTACTATACATATATATAAT [XGTACX_site7442] | 9.71 |
| TTAGAAACATTGAAAGCATGCAATATTACTTTATAC [TGCATGCA_site522] | 9.64 |
| TCCTTATATTTGCACACACACACAAGAAAATGAAAA [CACACA_site6613] | 10.3 |
| TATATAATATAATTGACATGCAACCATTTTCGTGAA [TGCATGCA_site458] | 9.58 |
| TCATTCATATGTTACACACACACACGCACATAAAAA [CACACA_site7514] | 10.7 |
| AAGTTGGAAAGGTTATGTACTTATTTTTTAAAATAA [XGTACX_site204] | 9.48 |
| ATAAAAAACTCAGAGCGTACATAATTTTTTCTATTT [XGTACX_site2803] | 9.72 |
| TAACCATACATACATACACACACACCCACATATATA [CACACA_site8951] | 10.3 |
| TATATATTCAAATGTGCATGTAAAAAAAAAAAAAAG [TGCATGCA_site126] | 9.63 |
| CAGGAGAGTAAAAGAGTGCGAATTATTATTTTGGAG | 9.48 |
| GGCATATATATATGCACACATACATAAATACATGTG [CACACA_site5999] | 10.2 |
| TCCCTAGTATACCTTAGTACATATATTATTTTGCAC [XGTACX_site2174] | 9.82 |
| AGACATTAATGAAGGTGTACATATATTTGACAGAAT [XGTACX_site655] | 9.94 |
| ATAATATATATATATACGCACACTTATGTACGGATT [CACACA_site2120] | 9.8 |
| TTCTATATAATTCAAACATGCACAGGAAATATTATA [TGCATGCA_site290] | 9.68 |
| AACAATGTTTTCTTGTGTACACATCATTAAAGAAAA [XGTACX_site4726] | 9.56 |
| AAGAAAAAAGGGGACAAGGCATATCTATATATACAT [TGCATGCA_negctrl_site172] | 9.77 |

| Sequence | gcPBM binding intensity (ln) |
| --- | --- |
| TATGTAACACATACTTGTACATATATAATTTTTTTA [XGTACX_site6251] | 9.65 |
| ATACATATATATATATGTACATATGCACATATATAC [XGTACX_site7209] | 9.69 |
| TCTTTTGCCCAAAAAGGTACACACCACAATTTAAAT [XGTACX_site1482] | 9.59 |
| TATTGTATGGTAGGATATGATGTTATTTGTTATAAT [CACACA_negctrl_site202] | 9.9 |
| ATATATATATCACGCACACACGAATTTTAAATATAT [CACACA_site5691] | 10.4 |
| TTATTTTTACAATTTTAATAATAATACTAAAACAAA [XGTACX_negctrl_site538] | 9.2 |
| AATATATTATAATATACACACATATATGCTCTTTAA [CACACA_site4131] | 9.95 |
| ATATATTATATATATTTTAAGTAATTTGCAAAAAAT [GTGCAC_negctrl_site361] | 9.28 |
| ATTTAAAAGAAATAATGTACGAATCATATTTGATAT [XGTACX_site1785] | 9.61 |
| ATAAGAAAAGGACACACACACAAAAAAAAAAAAAAA [CACACA_site7351] | 11.1 |
| TGTTCTTATTTTATAAGCATATAATTAATCATAATG [CACACA_negctrl_site1493] | 9.52 |
| ATGTATATAATATTATGTACATATATGAAATATTTT [XGTACX_site8168] | 9.78 |
| TTTATTTATTATTGTTGTACACTTTTTATAAAAAAA [XGTACX_site5114] | 9.51 |
| TAGTTTTTTATAAAATTATTTATATAAAGGTAAAAA [CACACA_negctrl_site490] | 9.2 |
| TTCCCTAATATTTGTTGTACTTGTTATATTTTTTTT [XGTACX_site5994] | 9.9 |
| TATATTTGTAAGAAGAGTACTAAAAAAAGAATAAAG [XGTACX_site8704] | 9.69 |
| ATATATATATATATATGTACGTACTCAGTTATGCCT [XGTACX_site453] | 9.73 |
| ATAGTATCTGGTAGCTGTACGAGTCGTAGAGTGCAG [XGTACX_site2020] | 9.68 |
| ATTTATTAACCATATACACACATATATTTGTATTTA [CACACA_site6744] | 9.84 |

| Sequence | gcPBM binding intensity (ln) |
| --- | --- |
| GTGTATATATGTTATACACACAAAAATATTTTGTAT [CACACA_site265] | 9.79 |
| AAAAATCATATAGGTTGTACGGGTAGTTTATTTTAT [XGTACX_site6936] | 9.79 |
| TTATTATATAAAGTTTCACACATTATTTGTTCAAAC [CACACA_site5218] | 9.64 |
| ATATGAAGTATCGAATTAAGGGCAACAAATAAATTA [CACACA_negctrl_site1116] | 9.66 |
| AATATAAGCAAATACACACACACATATAAATATGTA [CACACA_site7741] | 10.8 |
| TACATATATAAATATGTACACACATATGTATGATCT [CACACA_site9284] | 9.83 |
| AAAAAAATAATATAAATAATGAAAAGATATAAATAA [GTGCAC_negctrl_site432] | 9.72 |
| TTATATATGACTAACGGTTTTTTTTTTTTTTTTTTT [CACACA_negctrl_site576] | 9.54 |
| AGTAGTCTGGAGAAGAGTACACAGTATCTGGTAACA [XGTACX_site2032] | 9.49 |
| TAATATCAATTTTTATGTACTTATATATATATATAT [XGTACX_site5879] | 9.77 |
| ATTGAGAGAAAAAAATGTACTTGATCAAAATGGATA [XGTACX_site1649] | 9.66 |
| CGCACCCACAGACACACACACACATATATATATATA [CACACA_site2202] | 11.4 |
| AATATATATTAAATATGTACTTATTTTTTGGTTGCT [XGTACX_site3613] | 9.63 |
| TACATACAGAAACACACACACACATATATATATATA [CACACA_site2919] | 11.1 |
| AAAGAATAATTAAATACACACATATTACAGTAAAAA [CACACA_site2450] | 10.1 |
| ACAAAAAAAAAAAAAAAAAAAAAAAAAAAATAATAA [CACACA_negctrl_site1640] | 9.18 |
| AGATCAATAATGACAAGTACACAAAATAACATTTAA [XGTACX_site6968] | 9.85 |
| AAAATATATTAAGGCACACACATACATATTTATATA [CACACA_site7707] | 10.2 |
